# In PubChem BioAssay AID624418 (National Center for Advancing Translational Sciences (NCATS), 2012):
# The whole screen tested about 410,000 compounds, of which about 530 (0.13%) were called active. This list was built around the results that the source calls inconclusive (neither active nor inactive); the mix of calls is not that of the screen. Calls follow the shape of the dose curve; as a rule, active = well fitted inhibition curve with a large enough effect; inconclusive = small, poorly fitted or top-dose-only effect, or another doubt; inactive = no such curve, though single readings can be large or run the other way. Where the call is inconclusive, the potency comes from a doubtful curve fit.
# Test: qHTS of GLP-1 Receptor Inverse Agonists: Cytotox Screen
# Details: HEK293 cAMP-luciferase reporter cells, luminescence, 24 h; activity change, negative = inhibition: at 38.3 µM (top of the series) unless noted
# How it was run: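 To flag toxic compounds, the library was rerun on cells for 24 hr at 37 deg C and 5% CO2. Viability-linked luminescence was captured 12 min after adding luciferase detection reagent.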
# % is scaled to controls: 0 for no effect and ±100 for the full control effect; potency is read from the fitted curve at half-maximal effect.
Structure (SMILES),Potency,"activity change, negative = inhibition"
O=C(CCl)Nc1ccc2c(c1)OCO2,"inconclusive: 31.6 µM [inhibitor, single point]",–
O=C(CCc1ccc(O)cc1)NN=Cc1ccc2c(c1)OCO2,"inconclusive: 28.2 µM [inhibitor, single point]",–
COc1ccc(S(=O)(=O)Cc2ccc(C(=O)N3CCC(C(N)=O)CC3)o2)cc1,"inconclusive: 1 µM [inhibitor, full curve, poor fit]",–
CC1=Nc2cc(C(=O)NCCc3ccc(Cl)cc3)ccc2Sc2c(C)ccc(C)c21,"inconclusive: 2.24 µM [inhibitor, full curve]",–
CCOc1c2ccc(C(=O)N[C@H](C)C3CCCCC3)cc2nn1CC,inactive,–
Cc1ccccc1/C=N/n1c(C2CCCCC2)n[nH]c1=S,"inconclusive: 28.2 µM [inhibitor, single point]",–
Cc1ccsc1/C=N/Nc1ncc(Cl)cc1Cl,"inconclusive: 28.2 µM [inhibitor, single point]",–
CCOc1ccc(N(CC(=O)NCc2ccccc2)S(=O)(=O)c2c(C)noc2C)cc1,"inconclusive: 3.98 µM [inhibitor, partial curve, poor fit]",–
CCN(CC)CCCNC(=O)c1ccc2c(Cl)c3c(nc2c1)CCCC3,"inconclusive: 28.2 µM [inhibitor, single point]",–
CN(C)c1ccc(N=Nc2cccc3ccoc23)cc1,"inconclusive: 11.2 µM [inhibitor, partial curve, poor fit]",–
COc1ccccc1CNC(=O)[C@H](NC(=O)C1CCN(C(=O)[C@@H](N)CCSC)CC1)C(C)C,"inconclusive: 8.91 µM [inhibitor, partial curve, poor fit]",–
O=C(COC(=O)CCC(=O)c1ccc(F)cc1)Nc1cccc(S(=O)(=O)N2CCOCC2)c1,inactive,–
c1ccc(CN2CCC3(CCCc4ccccc43)CC2)cc1,"inconclusive: 28.2 µM [inhibitor, single point]",–
Cc1ccc(NC(=O)CSCC(=O)Nc2nnc(C)s2)cc1,inactive,–
Cc1cc(C)c(CN2CCN(C(=O)Cn3cnc4c(OCc5ccccc5)ncnc43)CC2)c(C)c1,inactive,–
CC(C)C[C@H]1CN=C(Nc2ccccc2)N1CCc1cccc(F)c1,"inconclusive: 0.501 µM [inhibitor, full curve, poor fit]",–
O=C(NC(=S)Nc1ccccc1Br)C1CCC1,"inconclusive: 12.6 µM [inhibitor, partial curve, poor fit]",–
CCn1cc(S(=O)(=O)CC(=O)Nc2cc(C)on2)c2ccccc21,"inconclusive: 8.91 µM [inhibitor, partial curve]",–
O=[N+]([O-])c1cccc(/C=N/NC2=NCCCCC2)c1,inactive,–
CC12CN3CCN(CC(C3)/C1=N/N=C/c1cccc([N+](=O)[O-])c1)C2,"inconclusive: 10 µM [inhibitor, single point]",–
O=C(NC(=S)N1CCN(C/C=C/c2ccccc2)CC1)c1ccco1,"inconclusive: 10 µM [inhibitor, single point]",–
Cc1ccc(S(=O)(=O)N2CCC(C(=O)Nc3ccc4c(c3)COC4=O)CC2)cc1,inactive,–

Structure (SMILES),Potency,"activity change, negative = inhibition"
Cn1c(NCc2c[nH]c3ccccc23)nc2ccccc21,"inconclusive: 12.6 µM [inhibitor, partial curve, poor fit]",–
Cc1ccc(NS(=O)(=O)Cc2ccccc2)nc1,"inconclusive: 10 µM [inhibitor, single point]",–
CCOC(=O)c1ccc2[nH]c(CSc3nnc(-c4cccc(F)c4)n3C)cc(=O)c2c1,inactive,–
Cc1ccc(C)c2[nH]c(=O)c(CCNC(=O)c3ccc(S(=O)(=O)N(C)C)cc3)cc12,"inconclusive: 2.51 µM [inhibitor, full curve, poor fit]",–
OC(c1ccccc1)(c1ccccc1)C1CCN(CCCOc2cccc(OC(F)(F)F)c2)CC1,"inconclusive: 12.6 µM [inhibitor, single point]",–
O=C(/C=C/c1cccc([N+](=O)[O-])c1)c1cccs1,"inconclusive: 10 µM [inhibitor, partial curve]",–
O=C1c2ccccc2C2=Nc3ccccc3SC(c3ccccc3F)C12 (stereo not drawn),"inconclusive: 11.2 µM [inhibitor, single point]",–
COc1ccc(-c2ccc(CCC(=O)O)n2-c2ccc(Cl)cc2C)cc1,inactive,–
CC(=O)c1cccc(NC(=S)NC2CCCCCCC2)c1,"inconclusive: 28.2 µM [inhibitor, single point]",–
C[C@H]1[C@H]2c3nc4ccccc4n3C[C@H]1ON2C1CCCCC1,"inconclusive: 0.501 µM [inhibitor, full curve, poor fit]",–
COc1ccc(OC)c(Nc2nc(NCCCN(C)C)nc(N)c2[N+](=O)[O-])c1,"inconclusive: 28.2 µM [inhibitor, single point]",–
COc1cc(/C=N/NC(=S)NC2CC3CCC2C3)ccc1O (stereo not drawn),"inconclusive: 28.2 µM [inhibitor, single point]",–
O=C(Nc1nnc(-c2ccc(Cl)cc2)o1)c1ccc(N2C(=O)CCC2=O)cc1,inactive,–
COc1ccc(-c2n[nH]c(C)c2-c2ccc(Cl)cc2)c(O)c1,"inconclusive: 28.2 µM [inhibitor, single point]",–
Cc1ccc2nc(-c3ccc(NC(=O)CN4CCN(C(=O)c5ccco5)CC4)cc3)sc2c1,inactive,–
CCCC1(C)C(C#N)C(=O)NC(=O)C1C#N (stereo not drawn),inactive,–
CCOc1ccc(C(NC(C)=O)c2ccc(OC)c(OC)c2)cc1 (stereo not drawn),"inconclusive: 6.31 µM [inhibitor, partial curve, poor fit]",–
CCN(CC)c1cc(C)c2cc(NC(=O)c3ccc(F)cc3Cl)ccc2n1,"inconclusive: 17.8 µM [inhibitor, partial curve, poor fit]",–
CC(C)C1Cc2c(sc3ncnc(NN)c23)CO1 (stereo not drawn),–,inconclusive: -41.7% [inhibitor]
COc1ccc(Nc2nc(-c3c[nH]c4ccccc34)cs2)cc1,"inconclusive: 10 µM [inhibitor, partial curve, poor fit]",–
CCc1ccc(-c2nc(CN3CCC(C(=O)NCc4ccccc4OC)CC3)c(C)o2)cc1,"inconclusive: 11.2 µM [inhibitor, partial curve, poor fit]",–
